According to publication PMC4336329 (PLoS ONE, 2015):
The campaign covered roughly 310,000 compounds. About 2,200 (0.71%) showed an effect of 50% or more. The effect is printed as a negative number. The list shows a part of the results.

Molecular target: human ether-à-go-go-related gene (hERG) potassium channel (human, UniProt Q12809)
Experiment: primary screen, population patch clamp on CHO cells stably expressing hERG

Sequence of human ether-à-go-go-related gene (hERG) potassium channel (Q12809 whole entry, looked up): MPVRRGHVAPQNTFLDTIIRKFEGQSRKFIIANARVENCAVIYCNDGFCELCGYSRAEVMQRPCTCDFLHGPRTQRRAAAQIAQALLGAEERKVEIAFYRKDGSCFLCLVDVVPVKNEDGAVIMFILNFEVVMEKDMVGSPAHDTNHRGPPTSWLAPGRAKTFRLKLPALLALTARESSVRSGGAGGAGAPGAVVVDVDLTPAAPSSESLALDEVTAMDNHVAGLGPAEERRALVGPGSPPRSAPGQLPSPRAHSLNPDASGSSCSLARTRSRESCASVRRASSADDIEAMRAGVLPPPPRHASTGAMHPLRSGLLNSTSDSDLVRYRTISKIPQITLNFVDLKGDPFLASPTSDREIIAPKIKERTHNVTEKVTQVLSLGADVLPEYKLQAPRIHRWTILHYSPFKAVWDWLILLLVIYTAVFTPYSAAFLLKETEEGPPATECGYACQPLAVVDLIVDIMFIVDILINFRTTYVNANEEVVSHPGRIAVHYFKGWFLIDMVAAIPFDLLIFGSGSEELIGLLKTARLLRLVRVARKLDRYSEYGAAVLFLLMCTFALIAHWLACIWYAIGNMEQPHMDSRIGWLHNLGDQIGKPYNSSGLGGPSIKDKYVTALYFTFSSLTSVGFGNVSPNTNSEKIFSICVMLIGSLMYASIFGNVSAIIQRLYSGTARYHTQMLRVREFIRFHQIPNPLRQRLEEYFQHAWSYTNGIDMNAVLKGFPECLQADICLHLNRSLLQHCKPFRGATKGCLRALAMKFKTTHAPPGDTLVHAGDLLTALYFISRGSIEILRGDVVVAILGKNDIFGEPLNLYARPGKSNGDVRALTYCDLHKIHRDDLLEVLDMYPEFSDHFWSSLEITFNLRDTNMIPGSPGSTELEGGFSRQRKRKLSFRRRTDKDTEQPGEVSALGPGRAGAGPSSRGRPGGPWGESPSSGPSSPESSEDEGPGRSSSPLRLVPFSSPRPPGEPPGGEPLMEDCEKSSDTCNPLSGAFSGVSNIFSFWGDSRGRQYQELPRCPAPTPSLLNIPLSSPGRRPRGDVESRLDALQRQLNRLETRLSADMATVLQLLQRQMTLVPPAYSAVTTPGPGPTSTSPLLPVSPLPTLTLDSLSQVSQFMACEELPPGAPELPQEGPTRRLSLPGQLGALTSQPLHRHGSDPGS

First: Cc1[nH]nc2c1/C(=N/O)CC(c1ccccc1)C2 (centres unmarked)
Second: O=C1C=C(Nc2ccccc2)CC(c2ccccc2)C1 (centres unmarked)
The “hERG current change (%, negative = inhibition) at 1uM” value of the first is higher: 16.4% for the first, 13.2% for the second.

Going from `CCOC(=O)c1c(N)sc(C(O)(C(F)(F)F)C(F)(F)F)c1-c1ccc(Cl)cc1` to `NNc1nc2c(-c3ccc(Cl)cc3)nnn2c2ccccc12`, the “hERG current change (%, negative = inhibition) at 1uM” value falls from 9.96% to 2.6%.

Compared with `C=CCNC(=O)CSc1ncc2c(n1)-c1c(csc1SC)CC2`, `O=C(CSc1nnc(C2CC2)n1-c1ccccc1)NCCN1C(=O)CSC1=O` is lower in “hERG current change (%, negative = inhibition) at 1uM” value: 8.84% for the first, 8.18% for the second.

Compared with `COc1cccc(/C=N/NC(=O)CCNc2n[nH]c(=O)[nH]c2=O)c1OC`, `CCN(CC)c1ccc(N=Cc2c(O)n(-c3cc(OC)ccc3OC)c(=O)[nH]c2=O)cc1` is higher in “hERG current change (%, negative = inhibition) at 1uM” value: 14.8% for the first, 20.9% for the second.

First: CCCC(C)n1[nH]c(=O)c2c1NC(=O)CSC2c1ccccc1 (centres unmarked)
Second: CC(C)CN(C(=O)COC(=O)C1=COCCO1)c1c(N)n(Cc2ccccc2)c(=O)[nH]c1=O
The “hERG current change (%, negative = inhibition) at 1uM” value of the first is lower: 4.11% for the first, 19.6% for the second.

First: CCn1nc(C(=O)Nc2nc(-c3ccccn3)cs2)c2ccccc2c1=O
Second: O=C(Nc1cccc(-c2nc3ccccc3s2)c1)c1cc(=O)c2ccccc2o1
The “hERG current change (%, negative = inhibition) at 1uM” value of the first is lower: 9% for the first, 15.5% for the second.

Compared with `O=c1cc(CSc2nnc3ccccn23)c2c(ccc3ccccc32)o1`, `O=C(CSc1nnc2ccccn12)N1CCc2ccccc21` is higher in “hERG current change (%, negative = inhibition) at 1uM” value: 0.0307% for the first, 2.08% for the second.

Compared with `CC(C)(C)NC(=O)C(=O)NNC(=O)c1ccccc1`, `COc1ccccc1C(=O)NC(=S)NNC(=O)c1sc2ccccc2c1Cl` is higher in “hERG current change (%, negative = inhibition) at 1uM” value: 12.4% for the first, 15.2% for the second.

First: Cc1cccn2c(=O)c3cc(C(=O)NCCN4CCOCC4)c(=N)n(CCc4ccccc4)c3nc12
Second: Cc1cccc(-c2nc(CSCC(=O)NCCCN3CCOCC3)c(C)o2)c1
The “hERG current change (%, negative = inhibition) at 1uM” value of the first is lower: -71.8% for the first, 13.9% for the second.

Compared with `CCc1nnc(NC(=O)c2ccc(S(C)(=O)=O)cc2)s1`, `CCc1ccc(C(=O)Nc2ccc(S(=O)(=O)Nc3nc(C)cc(C)n3)cc2)o1` is higher in “hERG current change (%, negative = inhibition) at 1uM” value: 6.81% for the first, 12.3% for the second.

Compared with `COc1ccc2[nH]c(=O)c(CN(C(=O)c3cccnc3)c3ccc(C)c(C)c3)cc2c1`, `COc1ccc(N2CC(C(=O)NCc3cccnc3)CC2=O)cc1` (centres unmarked) is lower in “hERG current change (%, negative = inhibition) at 1uM” value: 16.6% for the first, 8.95% for the second.

Compared with `c1ccc(Nc2nc(-c3ccccc3)ns2)cc1`, `O=C(COC(=O)c1cccs1)Nc1nnc(-c2ccccc2)o1` is lower in “hERG current change (%, negative = inhibition) at 1uM” value: 14.4% for the first, 6% for the second.

Going from `COc1cccc(NC(=O)CN2C(=O)CSc3ccc(S(=O)(=O)N4CCCCC4)cc32)c1` to `CC1CCC(NC(=O)Cn2c(=O)oc3cc(S(=O)(=O)N4CCCC4)ccc32)CC1` (centres unmarked), the “hERG current change (%, negative = inhibition) at 1uM” value rises from 8.56% to 14.8%.

Compared with `Cc1cc(C)cc(N=c2c([N+](=O)[O-])nn(-c3ccc4c(c3)OCCO4)n2O)c1`, `Cc1ccc(C(=O)Nc2ccc3c(c2)OCCO3)c(C)c1` is higher in “hERG current change (%, negative = inhibition) at 1uM” value: -4.52% for the first, 16% for the second.

Compared with `CC(=O)[C@@H]1[C@@H](C(=O)c2ccc(F)cc2)[C@]2(C(=O)Nc3ccccc32)[C@H]2C=Cc3cc(F)ccc3N12`, `Cc1cccc(C)c1NC(=O)c1ccc(CN2CCc3ccccc3C2)cc1` is higher in “hERG current change (%, negative = inhibition) at 1uM” value: 8.22% for the first, 9.59% for the second.

Going from `CCN(CC)CCN(Cc1cc2cc3c(cc2[nH]c1=O)OCO3)C(=S)NC` to `CCCn1c(N)c(N(CCOC)C(=O)c2ccc([N+](=O)[O-])cc2Cl)c(=O)[nH]c1=O`, the “hERG current change (%, negative = inhibition) at 1uM” value rises from 11.1% to 11.4%.

First: COc1cccc(C(=O)/C=C/Nc2ccc(S(=O)(=O)Nc3onc(C)c3C)cc2)c1
Second: COc1cccc(CNC(=O)C(=O)NCCC2CCCCN2S(=O)(=O)c2ccc(C)cc2)c1 (centres unmarked)
The “hERG current change (%, negative = inhibition) at 1uM” value of the first is higher: 13.7% for the first, 10.5% for the second.

Compared with `COC(=O)c1sc2nc(C)cc(C)c2c1N`, `Cc1cc(C)c(C)c(S(=O)(=O)NC(C(=O)O)C(C)C)c1C` (centres unmarked) is higher in “hERG current change (%, negative = inhibition) at 1uM” value: 10.9% for the first, 16.1% for the second.

Going from `COc1ccc(CN2CCN(C(=O)c3ccc(CNS(=O)(=O)c4ccc(C)cc4)cc3)CC2)c(OC)c1OC` to `O=C(c1ccc(Cn2cc(Br)cn2)cc1)N1CCN(c2ccccc2)CC1`, the “hERG current change (%, negative = inhibition) at 1uM” value falls from 17.4% to 4.04%.

Compared with `CCCn1c(N)c(C(=O)COC(=O)CCS(=O)(=O)c2ccc(C)cc2)c(=O)[nH]c1=O`, `CCc1ccc(OCC(=O)NNC(=O)CSc2nnc(-c3ccc(C)cc3)n2C)cc1` is lower in “hERG current change (%, negative = inhibition) at 1uM” value: 13.7% for the first, 10.2% for the second.

Going from `COc1ccc(Br)cc1CNC(=O)CCN1C(=O)COc2ccccc21` to `COc1ccc(-c2cc(C)no2)cc1S(=O)(=O)N1CCN(c2ccccc2F)CC1`, the “hERG current change (%, negative = inhibition) at 1uM” value falls from 6.61% to 4.55%.

First: COc1ccccc1Nc1ncccc1[N+](=O)[O-]
Second: Cc1cccc(NC(=O)CCOc2ccccc2)c1C
The “hERG current change (%, negative = inhibition) at 1uM” value of the first is higher: 23.5% for the first, 5.87% for the second.

Going from `CS(=O)(=O)NNC(=O)CN1C(=O)C2C3C=CC(C3)C2C1=O` (centres unmarked) to `Cc1cc(Cl)c(S(N)(=O)=O)cc1OCC(=O)NC1CCCCC1`, the “hERG current change (%, negative = inhibition) at 1uM” value falls from 22.9% to 10.2%.

Going from `CCOC(=O)NC(Nc1nnc(C)s1)(C(=O)OCC)C(F)(F)F` (centres unmarked) to `Cc1nnc(SCC2=C(C(=O)O)N3C(=O)C(NC(=O)Cn4ncc(Cl)c4C)C3SC2)s1` (centres unmarked), the “hERG current change (%, negative = inhibition) at 1uM” value rises from 11% to 12.9%.

Going from `Cc1ccc(Cl)c(NC(=O)COC(=O)C2CCC2)c1Cl` to `CCC(C)N(C(=O)c1csnn1)C(C(=O)NC1CCCC1)c1c(F)cccc1Cl` (centres unmarked), the “hERG current change (%, negative = inhibition) at 1uM” value falls from 25.3% to 14.2%.

Going from `COC(=O)C1CCCN1C(=O)C12CC3CC(CC(C3)C1)C2` (centres unmarked) to `COC(=O)c1ccc(C(=O)OC)c(NC(=S)N2CCC(N3CCCCC3)CC2)c1`, the “hERG current change (%, negative = inhibition) at 1uM” value falls from 13.8% to 6.3%.

Compared with `CN(C(=O)Cn1cnc2ccccc2c1=O)C1CCS(=O)(=O)C1` (centres unmarked), `CCN(CC(=O)NC1CCS(=O)(=O)C1)C(=O)c1ccc(S(=O)(=O)N(CC)CC)cc1` (centres unmarked) is higher in “hERG current change (%, negative = inhibition) at 1uM” value: 0.575% for the first, 11.7% for the second.

Going from `COc1ccc(C(O)(CCN2CCCCC2)C2CCCCC2)cc1.Cl` (centres unmarked) to `O=C(CSc1nnc(-c2ccco2)o1)NC1CCCCCC1`, the “hERG current change (%, negative = inhibition) at 1uM” value falls from 12.9% to -4.96%.

Going from `O=C(CCNc1cccc(F)c1)c1cccc([N+](=O)[O-])c1` to `O=C(Nc1c2c(nn1-c1ccc([N+](=O)[O-])cc1)CS(=O)(=O)C2)c1ccco1`, the “hERG current change (%, negative = inhibition) at 1uM” value falls from 16.6% to -24.1%.

Going from `CCCn1nnc(NC(=O)C(C)Oc2ccc(Cl)cc2Cl)n1` (centres unmarked) to `COc1ccc(CNC(=O)CSc2nnc3c(Cl)cc(C(F)(F)F)cn23)cc1OC`, the “hERG current change (%, negative = inhibition) at 1uM” value falls from 7.8% to 1.09%.

First: CC(=O)O[C@H]1c2ccccc2-c2ccccc2[C@@H]1OC(C)=O
Second: CCOc1ccc(NC(=O)NCCCCc2ccccc2)cc1
The “hERG current change (%, negative = inhibition) at 1uM” value of the first is lower: 10.3% for the first, 16.2% for the second.

First: Cc1ccc(C2(O)CN3CCC2CC3)cc1.Cl (centres unmarked)
Second: C/C(=N\NC(=O)c1ccccc1Br)c1ccc(N2CCOCC2)cc1
The “hERG current change (%, negative = inhibition) at 1uM” value of the first is lower: 2% for the first, 8.25% for the second.

Compared with `O=C1CC(N2CCN(c3ncccn3)CC2)C(=O)N1CCc1ccccc1` (centres unmarked), `O=C1C2CCCN2C(c2ccccc2)N1c1cccc(Cl)c1` (centres unmarked) is lower in “hERG current change (%, negative = inhibition) at 1uM” value: 12% for the first, -3.47% for the second.

Compared with `O=C(O)C1CCC(CNS(=O)(=O)c2ccccc2)CC1` (centres unmarked), `O=C(c1ccc(Cl)cc1)C(CN1CCCC1)c1ccccc1` (centres unmarked) is higher in “hERG current change (%, negative = inhibition) at 1uM” value: 9.37% for the first, 10.4% for the second.

First: COc1ccc(N2CCN(C(=O)[C@H](C)NC(=O)c3ccccc3Cl)CC2)cc1
Second: COc1ccc(C(=O)NN(C)c2nc(C(F)(F)F)nc3ccccc23)cc1
The “hERG current change (%, negative = inhibition) at 1uM” value of the first is lower: 12.5% for the first, 15.3% for the second.

First: COC(=O)C1=C(c2ccc(OC)c(OC)c2)C[C@@H]2CC[C@H]1N2C(=O)NCCOc1ccccc1Cl
Second: CCN(CC(=O)NCc1cccs1)C(=O)/C=C/c1ccc(OC)cc1OC
The “hERG current change (%, negative = inhibition) at 1uM” value of the first is higher: 14.4% for the first, -2.59% for the second.

First: COc1ccc(N=C2SCC(c3ccc([N+](=O)[O-])cc3)=NN2CCO)cc1
Second: CN(C)c1ccc(N=Cc2c(O)n(CCC3=CCCCC3)c(=O)[nH]c2=O)cc1
The “hERG current change (%, negative = inhibition) at 1uM” value of the first is lower: 7.41% for the first, 7.77% for the second.

Going from `COc1cc(OC)cc(C(=O)NC(C(=O)Nc2ccc3c(c2)OCCO3)C(C)C)c1` (centres unmarked) to `COc1ccc([N+](=O)[O-])cc1N(CC(=O)NCC1CCCO1)S(C)(=O)=O` (centres unmarked), the “hERG current change (%, negative = inhibition) at 1uM” value rises from 5.12% to 12.1%.

First: COCc1cc(=O)[nH]c(/N=C(\N)Nc2cccc(Cl)c2)n1
Second: O=C(N/N=C/c1ccncc1)c1ccc(NC(=O)c2cccc(Cl)c2)cc1
The “hERG current change (%, negative = inhibition) at 1uM” value of the first is lower: 5.67% for the first, 23.6% for the second.

Compared with `CC(C)Sc1nc(SCC(=O)O)c2c3c(sc2n1)COC(C)(C)C3`, `CCCCN1C(=O)C(NC(=O)C2CC2)(C(F)(F)F)C2=C1CC(C)(C)CC2=O` (centres unmarked) is higher in “hERG current change (%, negative = inhibition) at 1uM” value: 6.55% for the first, 11.1% for the second.

Compared with `Clc1ccc(-n2nnnc2CN2CCOCC2)cc1Cl`, `Cn1nnnc1SCC(=O)Nc1ccccc1C(N)=O` is higher in “hERG current change (%, negative = inhibition) at 1uM” value: 6.94% for the first, 21.1% for the second.

Compared with `CCOC(=O)N1CCC(Nc2c(NCCN3CCN(Cc4ccccc4)CC3)c(=O)c2=O)CC1`, `CCn1ncc([N+](=O)[O-])c1C(=O)N1CCc2ccccc2C1` is higher in “hERG current change (%, negative = inhibition) at 1uM” value: -3.25% for the first, 10.3% for the second.

Compared with `O=C1N(Cc2cccc(Cl)c2)C[C@@H]2C[C@@H](c3cccc4cccnc34)N3CCC[C@@]123`, `Cc1nc(N)c2c(Cc3cccc4ccccc34)nn(C(C)(C)C)c2n1` is higher in “hERG current change (%, negative = inhibition) at 1uM” value: -63.8% for the first, 4.51% for the second.
